# From the supplement of paper PMC8728848
# The list shows a part of the results.
# Key:
# Assay in all cases: glycan array binding signal (z-score within array); higher = stronger binding
# Conditions in all cases: glycan notation: IUPAC condensed, linker removed
# [1] = target: GlcNAc(a1-6)Gal(b1-4)GlcNAc
# Procedure, shortened: (§1)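 Columns mapping to the same glycan were averaged after glycan names were converted to IUPAC-condensed notation. The data come from 3228 arrays in the Consortium for Functional Glycomics database, limited to those with an available protein sequence. Binding is reported as a within-array Z-score averaged across arrays of one protein sequence and across linkers.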
# [2] = target: GlcNAc(b1-2)Gal(b1-3)GalNAc
# Procedure, shortened: as §1
# [3] = target: GlcNAc(b1-2)Man(a1-3)[GlcNAc(b1-2)Man(a1-6)]Man(b1-4)GlcNAc(b1-4)GlcNAc
# Procedure, shortened: as §1
# [4] = target: GlcNAc(b1-2)Man(a1-3)[GlcNAc(b1-2)Man(a1-6)]Man(b1-4)GlcNAc(b1-4)[Fuc(a1-6)]GlcNAc
# Procedure, shortened: as §1
# [5] = target: GlcNAc(b1-2)Man(a1-3)[GlcNAc(b1-4)][GlcNAc(b1-2)Man(a1-6)]Man(b1-4)GlcNAc(b1-4)GlcNAc
# Procedure, shortened: as §1
# [6] = target: GlcNAc(b1-2)Man(a1-3)[GlcNAc(b1-4)][GlcNAc(b1-2)Man(a1-6)]Man(b1-4)GlcNAc(b1-4)[Fuc(a1-6)]GlcNAc
# Procedure, shortened: as §1
# [7] = target: GlcNAc(b1-2)[GlcNAc(b1-4)]Man(a1-3)[GlcNAc(b1-2)Man(a1-6)]Man(b1-4)GlcNAc(b1-4)GlcNAc
# Procedure, shortened: as §1
# [8] = target: GlcNAc(b1-2)[GlcNAc(b1-4)]Man(a1-3)[GlcNAc(b1-4)][GlcNAc(b1-2)Man(a1-6)]Man(b1-4)GlcNAc(b1-4)GlcNAc
# Procedure, shortened: as §1
# [9] = target: GlcNAc(b1-2)[GlcNAc(b1-4)]Man(a1-3)[GlcNAc(b1-4)][GlcNAc(b1-2)[GlcNAc(b1-6)]Man(a1-6)]Man(b1-4)GlcNAc(b1-4)GlcNAc
# Procedure, shortened: as §1
# [10] = target: GlcNAc(b1-2)[GlcNAc(b1-4)]Man(a1-3)[GlcNAc(b1-4)][GlcNAc(b1-2)[GlcNAc(b1-6)]Man(a1-6)]Man(b1-4)GlcNAc(b1-4)[Fuc(a1-6)]GlcNAc
# Procedure, shortened: as §1
# [11] = target: GlcNAc(b1-2)[GlcNAc(b1-6)]Man(a1-6)[GlcNAc(b1-2)Man(a1-3)]Man(b1-4)GlcNAc(b1-4)GlcNAc
# Procedure, shortened: as §1
# [12] = target: GlcNAc(b1-2)[GlcNAc(b1-6)]Man(a1-6)[GlcNAc(b1-2)Man(a1-3)]Man(b1-4)GlcNAc(b1-4)[Fuc(a1-6)]GlcNAc
# Procedure, shortened: as §1
# [13] = target: GlcNAc(b1-2)[GlcNAc(b1-6)]Man(a1-6)[GlcNAc(b1-4)][GlcNAc(b1-2)Man(a1-3)]Man(b1-4)GlcNAc(b1-4)GlcNAc
# Procedure, shortened: as §1
# GlcNAc(b1-3)Fuc = target: GlcNAc(b1-3)Fuc
# Procedure, shortened: as §1
# GlcNAc(b1-3)Gal = target: GlcNAc(b1-3)Gal
# Procedure, shortened: as §1
# [14] = target: GlcNAc(b1-3)Gal(b1-3)GalNAc
# Procedure, shortened: as §1
# GlcNAc(b1-3)Gal(b1-4)Glc = target: GlcNAc(b1-3)Gal(b1-4)Glc
# Procedure, shortened: as §1
# [15] = target: GlcNAc(b1-3)Gal(b1-4)GlcNAc
# Procedure, shortened: as §1
# [16] = target: GlcNAc(b1-3)Gal(b1-4)GlcNAc(b1-2)Man(a1-3)[GlcNAc(b1-3)Gal(b1-4)GlcNAc(b1-2)Man(a1-6)]Man(b1-4)GlcNAc(b1-4)GlcNAc
# Procedure, shortened: as §1
# [17] = target: GlcNAc(b1-3)Gal(b1-4)GlcNAc(b1-2)Man(a1-3)[GlcNAc(b1-3)Gal(b1-4)GlcNAc(b1-2)Man(a1-6)]Man(b1-4)GlcNAc(b1-4)[Fuc(a1-6)]GlcNAc
# Procedure, shortened: as §1
# [18] = target: GlcNAc(b1-3)Gal(b1-4)GlcNAc(b1-2)[GlcNAc(b1-3)Gal(b1-4)GlcNAc(b1-6)]Man(a1-6)[GlcNAc(b1-3)Gal(b1-4)GlcNAc(b1-2)Man(a1-3)]Man(b1-4)GlcNAc(b1-4)GlcNAc
# Procedure, shortened: as §1
# [19] = target: GlcNAc(b1-3)Gal(b1-4)GlcNAc(b1-3)Gal(b1-4)GlcNAc
# Procedure, shortened: as §1
# [20] = target: GlcNAc(b1-3)Gal(b1-4)GlcNAc(b1-3)Gal(b1-4)GlcNAc(b1-2)Man(a1-3)[GlcNAc(b1-3)Gal(b1-4)GlcNAc(b1-3)Gal(b1-4)GlcNAc(b1-2)Man(a1-6)]Man(b1-4)GlcNAc(b1-4)GlcNAc
# Procedure, shortened: as §1
# [21] = target: GlcNAc(b1-3)Gal(b1-4)GlcNAc(b1-3)Gal(b1-4)GlcNAc(b1-2)Man(a1-3)[GlcNAc(b1-3)Gal(b1-4)GlcNAc(b1-3)Gal(b1-4)GlcNAc(b1-2)Man(a1-6)]Man(b1-4)GlcNAc(b1-4)[Fuc(a1-6)]GlcNAc
# Procedure, shortened: as §1
# [22] = target: GlcNAc(b1-3)Gal(b1-4)GlcNAc(b1-3)Gal(b1-4)GlcNAc(b1-2)[GlcNAc(b1-3)Gal(b1-4)GlcNAc(b1-3)Gal(b1-4)GlcNAc(b1-6)]Man(a1-6)[GlcNAc(b1-3)Gal(b1-4)GlcNAc(b1-3)Gal(b1-4)GlcNAc(b1-2)Man(a1-3)]Man(b1-4)GlcNAc(b1-4)[Fuc(a1-6)]GlcNAc
# Procedure, shortened: as §1
# [23] = target: GlcNAc(b1-3)Gal(b1-4)GlcNAc(b1-3)Gal(b1-4)GlcNAc(b1-3)Gal(b1-4)GlcNAc(b1-2)Man(a1-3)[GlcNAc(b1-3)Gal(b1-4)GlcNAc(b1-3)Gal(b1-4)GlcNAc(b1-3)Gal(b1-4)GlcNAc(b1-2)Man(a1-6)]Man(b1-4)GlcNAc(b1-4)GlcNAc
# Procedure, shortened: as §1
# [24] = target: GlcNAc(b1-3)Gal(b1-4)GlcNAc(b1-3)Gal(b1-4)GlcNAc(b1-3)Gal(b1-4)GlcNAc(b1-2)Man(a1-3)[GlcNAc(b1-3)Gal(b1-4)GlcNAc(b1-3)Gal(b1-4)GlcNAc(b1-3)Gal(b1-4)GlcNAc(b1-2)Man(a1-6)]Man(b1-4)GlcNAc(b1-4)[Fuc(a1-6)]GlcNAc
# Procedure, shortened: as §1
# [25] = target: GlcNAc(b1-3)Gal(b1-4)GlcNAc(b1-3)Gal(b1-4)GlcNAc(b1-3)Gal(b1-4)GlcNAc(b1-2)[GlcNAc(b1-3)Gal(b1-4)GlcNAc(b1-3)Gal(b1-4)GlcNAc(b1-3)Gal(b1-4)GlcNAc(b1-6)]Man(a1-6)[GlcNAc(b1-3)Gal(b1-4)GlcNAc(b1-3)Gal(b1-4)GlcNAc(b1-3)Gal(b1-4)GlcNAc(b1-2)Man(a1-3)]Man(b1-4)GlcNAc(b1-4)[Fuc(a1-6)]GlcNAc
# Procedure, shortened: as §1
# [26] = target: GlcNAc(b1-3)Gal(b1-4)GlcNAc(b1-3)Gal(b1-4)GlcNAc(b1-3)Gal(b1-4)GlcNAc(b1-3)Gal(b1-4)GlcNAc(b1-2)Man(a1-3)[GlcNAc(b1-3)Gal(b1-4)GlcNAc(b1-3)Gal(b1-4)GlcNAc(b1-3)Gal(b1-4)GlcNAc(b1-3)Gal(b1-4)GlcNAc(b1-2)Man(a1-6)]Man(b1-4)GlcNAc(b1-4)GlcNAc
# Procedure, shortened: as §1
# [27] = target: GlcNAc(b1-3)Gal(b1-4)GlcNAc(b1-3)Gal(b1-4)GlcNAc(b1-3)Gal(b1-4)GlcNAc(b1-3)Gal(b1-4)GlcNAc(b1-2)Man(a1-3)[GlcNAc(b1-3)Gal(b1-4)GlcNAc(b1-3)Gal(b1-4)GlcNAc(b1-3)Gal(b1-4)GlcNAc(b1-3)Gal(b1-4)GlcNAc(b1-2)Man(a1-6)]Man(b1-4)GlcNAc(b1-4)[Fuc(a1-6)]GlcNAc
# Procedure, shortened: as §1
# [28] = target: GlcNAc(b1-3)Gal(b1-4)GlcNAc(b1-3)Gal(b1-4)GlcNAc(b1-3)Gal(b1-4)GlcNAc(b1-3)Gal(b1-4)GlcNAc(b1-2)[GlcNAc(b1-3)Gal(b1-4)GlcNAc(b1-3)Gal(b1-4)GlcNAc(b1-3)Gal(b1-4)GlcNAc(b1-3)Gal(b1-4)GlcNAc(b1-6)]Man(a1-6)[GlcNAc(b1-3)Gal(b1-4)GlcNAc(b1-3)Gal(b1-4)GlcNAc(b1-3)Gal(b1-4)GlcNAc(b1-3)Gal(b1-4)GlcNAc(b1-2)Man(a1-3)]Man(b1-4)GlcNAc(b1-4)[Fuc(a1-6)]GlcNAc
# Procedure, shortened: as §1
# [29] = target: GlcNAc(b1-3)Gal(b1-4)GlcNAc(b1-3)Gal(b1-4)GlcNAc(b1-3)GalNAc
# Procedure, shortened: as §1
# [30] = target: GlcNAc(b1-3)Gal(b1-4)GlcNAc(b1-3)GalNAc
# Procedure, shortened: as §1
# [31] = target: GlcNAc(b1-3)Gal(b1-4)GlcNAc(b1-3)[GlcNAc(b1-3)Gal(b1-4)GlcNAc(b1-3)]GalNAc
# Procedure, shortened: as §1
# [32] = target: GlcNAc(b1-3)Gal(b1-4)GlcNAc(b1-6)[Gal(b1-3)]GalNAc
# Procedure, shortened: as §1
# [33] = target: GlcNAc(b1-3)Gal(b1-4)GlcNAc(b1-6)[GlcNAc(b1-3)Gal(b1-3)]GalNAc
# Procedure, shortened: as §1
# [34] = target: GlcNAc(b1-3)Gal(b1-4)GlcNAc(b1-6)[GlcNAc(b1-3)]Gal(b1-4)GlcNAc
# Procedure, shortened: as §1
binder,measurement,setting,value
"DC-Sign (Homo sapiens), Q9NNX6 (protein) MSDSKEPRLQQLGLLEEEQLRGLGFRQTRGYKSLAGCLGHGPLVLQLLSFTLLAGLLVQVSKVPSSISQEQSRQDAIYQNLTQLKAAVGELSEKSKLQEIYQELTQLKAAVGELPEKSKLQEIYQELTRLKAAVGELPEKSKLQEIYQELTWLKAAVGELPEKSKMQEIYQELTRLKAAVGELPEKSKQQEIYQELTRLKAAVGELPEKSKQQEIYQELTRLKAAVGELPEKSKQQEIYQELTQLKAAVERLCHPCPWEWTFFQGNCYFMSNSQRNWHDSITACKEVGAQLVVIKSAEEQNFLQLQSSRSNRFTWMGLSDLNQEGTWQWVDGSPLLPSFKQYWNRGEPNNVGEEDCAEFSGNGWNDDKCNLAKFWICKKSAASCSRDEEQFLSPAPATPNPPPA",glycan array binding signal (z-score),[1],-0.156
same,glycan array binding signal (z-score),[2],-0.085
same,glycan array binding signal (z-score),[3],-0.105
same,glycan array binding signal (z-score),[4],-0.154
same,glycan array binding signal (z-score),[5],-0.173
same,glycan array binding signal (z-score),[6],-0.046
same,glycan array binding signal (z-score),[7],-0.183
same,glycan array binding signal (z-score),[8],-0.156
same,glycan array binding signal (z-score),[9],-0.174
same,glycan array binding signal (z-score),[10],-0.179
same,glycan array binding signal (z-score),[11],-0.101
same,glycan array binding signal (z-score),[12],-0.173
same,glycan array binding signal (z-score),[13],-0.195
same,glycan array binding signal (z-score),GlcNAc(b1-3)Fuc,-0.17
same,glycan array binding signal (z-score),GlcNAc(b1-3)Gal,-0.2
same,glycan array binding signal (z-score),[14],-0.067
same,glycan array binding signal (z-score),GlcNAc(b1-3)Gal(b1-4)Glc,-0.168
same,glycan array binding signal (z-score),[15],-0.089
same,glycan array binding signal (z-score),[16],-0.127
same,glycan array binding signal (z-score),[17],-0.073
same,glycan array binding signal (z-score),[18],0.209
same,glycan array binding signal (z-score),[19],-0.139
same,glycan array binding signal (z-score),[20],-0.085
same,glycan array binding signal (z-score),[21],-0.066
same,glycan array binding signal (z-score),[22],-0.071
same,glycan array binding signal (z-score),[23],-0.122
same,glycan array binding signal (z-score),[24],-0.092
same,glycan array binding signal (z-score),[25],-0.101
same,glycan array binding signal (z-score),[26],-0.127
same,glycan array binding signal (z-score),[27],-0.126
same,glycan array binding signal (z-score),[28],-0.077
same,glycan array binding signal (z-score),[29],-0.193
same,glycan array binding signal (z-score),[30],-0.133
same,glycan array binding signal (z-score),[31],-0.145
same,glycan array binding signal (z-score),[32],-0.019
same,glycan array binding signal (z-score),[33],-0.014
same,glycan array binding signal (z-score),[34],-0.072
